# According to article PMC4336329 (PLoS ONE, 2015):
# Among all 310,000 compounds or so, about 2,200 (0.71%) showed an effect of 50% or more. The effect is printed as a negative number. Some of the results follow.
# Target: human ether-à-go-go-related gene (hERG) potassium channel (human, UniProt Q12809)
# Assay: primary screen, population patch clamp on CHO cells stably expressing hERG
# Sequence of human ether-à-go-go-related gene (hERG) potassium channel (Q12809 whole entry, looked up): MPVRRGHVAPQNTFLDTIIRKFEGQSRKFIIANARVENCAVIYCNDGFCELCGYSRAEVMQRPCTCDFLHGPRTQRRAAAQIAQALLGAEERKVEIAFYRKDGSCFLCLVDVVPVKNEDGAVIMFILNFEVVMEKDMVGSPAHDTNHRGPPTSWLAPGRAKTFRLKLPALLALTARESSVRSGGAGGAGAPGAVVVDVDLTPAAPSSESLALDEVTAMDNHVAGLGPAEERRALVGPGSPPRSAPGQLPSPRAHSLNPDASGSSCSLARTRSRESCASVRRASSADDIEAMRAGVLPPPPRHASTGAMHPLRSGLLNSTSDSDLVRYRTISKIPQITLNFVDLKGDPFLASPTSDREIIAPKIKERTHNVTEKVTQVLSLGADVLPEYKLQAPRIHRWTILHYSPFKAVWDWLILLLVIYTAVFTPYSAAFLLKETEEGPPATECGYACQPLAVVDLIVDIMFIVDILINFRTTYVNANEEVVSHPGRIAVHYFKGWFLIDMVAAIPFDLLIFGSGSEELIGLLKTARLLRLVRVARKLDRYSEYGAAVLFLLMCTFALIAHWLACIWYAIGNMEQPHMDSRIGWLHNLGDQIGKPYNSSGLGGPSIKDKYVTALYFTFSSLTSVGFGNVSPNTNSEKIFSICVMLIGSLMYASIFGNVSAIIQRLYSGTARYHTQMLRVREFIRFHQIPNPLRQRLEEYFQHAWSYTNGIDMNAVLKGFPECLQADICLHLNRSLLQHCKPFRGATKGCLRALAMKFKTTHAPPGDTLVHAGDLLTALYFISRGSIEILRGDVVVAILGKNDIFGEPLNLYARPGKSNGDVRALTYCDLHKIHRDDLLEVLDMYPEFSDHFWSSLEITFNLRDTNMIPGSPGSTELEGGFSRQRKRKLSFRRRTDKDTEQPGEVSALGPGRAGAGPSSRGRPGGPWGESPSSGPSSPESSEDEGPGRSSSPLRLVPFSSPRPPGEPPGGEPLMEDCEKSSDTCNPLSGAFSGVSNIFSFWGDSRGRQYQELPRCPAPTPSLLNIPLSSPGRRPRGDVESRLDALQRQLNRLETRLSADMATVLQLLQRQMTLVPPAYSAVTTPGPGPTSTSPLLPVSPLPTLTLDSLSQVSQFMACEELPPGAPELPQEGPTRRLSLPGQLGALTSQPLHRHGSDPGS
row,SMILES,"hERG current change (%, negative = inhibition) at 1uM [%]"
1,COc1ccc(C(CNC(=O)c2ccc(N3CCCC3=O)cc2)N2CCCC2)cc1 (stereo not shown),12.1
2,COc1ccc(CCNS(=O)(=O)c2cc(C(=O)O)c(Cl)cc2Cl)cc1,7.89
3,C=CCN1C=C2C(=O)C(C)(OC(=O)c3cnc4ccccc4n3)C(=O)C=C2C=C1/C=C/COC (stereo not shown),7.46
4,c1ccc(OCc2nc(-c3ccccc3)no2)cc1,16.5
5,Cc1ccc(N(C(=O)CNC(=O)c2ccco2)C(C(=O)NC2CCCCC2)c2ccncc2)c(C)c1 (stereo not shown),9.97
6,CCN1C(=O)CC(n2c(C)nc3ccccc32)C1=O (stereo not shown),11
7,COc1ccc(Cl)cc1NC(=S)N1CCN(c2ncccn2)CC1,13.9
8,CCN1CCN(c2nc3ccccc3n3cnnc23)CC1,4.56
9,CC1=C(C)C(=O)OC(C(C)C2CCC3C4CC=C5CC(OC6OC(COC7OC(CO)C(O)C(O)C7O)C(O)C(O)C6O)CC(O)C5(C)C4CCC23C)C1 (stereo not shown),-7.4
10,C/C(=N\NC(=O)CNC(=O)c1ccccc1F)c1ccco1,8.73
11,CSc1nnc(CSc2cc(C)nc(N(C)C)n2)o1,-5.44
12,CCOc1ccccc1Nc1nc(-c2sc(NC(=O)c3ccco3)nc2C)cs1,15.3
13,Cc1ccc(OCCn2nnc3ccccc32)cc1C,8.27
14,COc1cc2c(cc1NS(=O)(=O)N1CCCCC1)oc1ccccc12,-1.53
15,O=C(COc1ccc2ccccc2c1)N1CCN(c2ccccc2O)CC1,11
16,O=C(CCc1ccc(S(=O)(=O)N2CCOCC2)cc1)Nc1ccc2ccccc2c1,-3.84
17,CCc1ccc2[nH]c(C(=O)Nc3ccc(F)cc3Br)cc2c1,18.5
18,O=C(c1cc(COc2c(F)cccc2F)on1)N1C[C@H]2CC[C@H]1C2,-3.54
19,COc1cccc(/C=N/n2cnc3cc(C)c(C)cc32)c1OC,18.5
20,CC1=C(C#N)C(c2cccnc2)C2=C(CCCC2=O)N1 (stereo not shown),2.43
21,COc1ccc(OC)c(Nc2nc3nonc3nc2N2CCCC(C)C2)c1 (stereo not shown),12.8
22,O=C(CSc1nc(C2CCCCC2)nc2ccccc12)NCc1ccc2c(c1)OCO2,13.9
23,COc1ccc(C(=O)C2CCCN(Cc3ccccn3)C2)c(OC)c1 (stereo not shown),-3.83
24,O=c1ccc(NS(=O)(=O)c2ccccc2Cl)cn1Cc1ccc(Cl)c(Cl)c1,1.92
25,C/C=C/C=C/C(=O)Nc1cccc(C2=NOC3(C2)C[C@H](C(N)=O)N(C(=O)CC(c2ccccc2)c2ccccc2)C3)c1 (stereo partly shown),16.4
26,CC(C)CCn1c(SCC(=O)NC2CCS(=O)(=O)C2)nc2cc(Cl)ccc2c1=O (stereo not shown),6.59
27,O=C(CN1CCCCCCC1)Nc1cccc(Cl)c1Cl,10.2
28,COC(=O)C1CCN(C(=O)COC(=O)CC(NC(N)=O)c2ccc(Cl)cc2)CC1 (stereo not shown),9.18

row,SMILES,"hERG current change (%, negative = inhibition) at 1uM [%]"
1,O=C(CSc1ccc(Cl)cc1)Nc1cccc(-c2nc3ccccc3[nH]2)c1,8.3
2,CCCCOC(=O)Nc1nnc(CC(=O)NCc2ccccc2)s1,9.19
3,Cc1ccccc1CS(=O)(=O)c1ncc(Cl)c(C(=O)Nc2ccc(F)cc2)n1,33.9
4,CCc1ccc(-n2ccc(=O)c(C(=O)O)n2)cc1,16
5,CCOC(=O)C(NC(C)=O)C(=O)Nc1ccc(C(C)C)cc1 (stereo not shown),16.8
6,CC(=O)/C=N/Nc1ccccc1,-8.81
7,COc1cc(/C=N/N=C/c2cc(OC)c(O)c(OC)c2)cc(OC)c1O,9.21
8,O=C(COC(=O)c1cccnc1Cl)NCc1ccco1,14.8
9,CCC1SC(CC)C(=O)N(CC(=O)NCc2ccc(F)cc2)C1=O (stereo not shown),4.42
10,CCCC(=O)c1ccc(N2CCN(S(=O)(=O)c3ccc(C)cc3)CC2)c(F)c1,7.96
11,CC1CC(=O)Nc2ccccc2N1C(=O)CN1CCN(c2ccccc2)CC1 (stereo not shown),11.2
12,COC(=O)C(C)Oc1ccc2cc(-c3ccccc3)c(=O)oc2c1 (stereo not shown),12.5
13,Cc1ccc(Cn2cnc3c(cnn3C(C)(C)C)c2=O)cc1,14.3
14,CCOC(=O)c1c(NC(=O)CSc2nnc3c(n2)[nH]c2ccccc23)sc2c1CCN(C)C2,8.73
15,Cn1c(CCc2ccccc2)nnc1SCC(N)=O,11.9
16,Clc1cccc(CN2CCN(c3nc4nonc4nc3NC3CC3)CC2)c1,9.02
17,Cc1ccc(C(C(=O)NC2CCCCC2)N(Cc2ccco2)C(=O)Cn2cnc3ccccc32)cc1 (stereo not shown),12.6
18,Cc1ccc(/C=C/c2onc(C)c2S(=O)(=O)N2CCC(C(=O)NC(C)(C)C)CC2)cc1,4.91
19,CC1(C)CC(=O)c2c(O)cc(OCc3ccc([N+](=O)[O-])cc3)cc2O1,20.5
20,Cc1ccc(Cl)cc1NC(=O)CCC(=O)Nc1cc(Cl)ccc1C,12.5
21,O=C(Cn1cnc2ccccc21)N/N=C/c1cccs1,11.5
22,Cc1nn(C2CCS(=O)(=O)C2)c(Cl)c1/C=C/C(=O)OCC(=O)Nc1ccccc1[N+](=O)[O-] (stereo not shown),15.5
23,Cc1cc(Sc2nnc(/N=C/N(C)C)s2)c2ccccc2n1,11.2
24,CCN(CC)S(=O)(=O)c1ccc(C)c(NC(=O)COc2ccc(Cl)cc2Br)c1,9.3
25,COc1cc2c(cc1OC)-c1cc(N3CCc4ccccc43)nc(=O)n1CC2,13.7
26,COc1cccc(NC(=O)c2c(F)cccc2F)c1,3.18
27,O=C(NC1CCCCC1)c1cc2cc(Br)ccc2o1,17.5
